# Experimental data from PubChem BioAssay AID1671194 (National Center for Advancing Translational Sciences (NCATS), 2021).
# Out of some 140,000 compounds screened, about 240 (0.17%) were called active. Inconclusive results, whose numbers are uncertain, are shown with a selection of clear calls. The call rests on the fitted dose curve; in most records, active means well fitted inhibition curve with a large enough effect; inconclusive means small, poorly fitted or top-dose-only effect; inactive means no such curve, though single readings can be large or run the other way. Where the call is inconclusive, the potency comes from a doubtful curve fit.
# Assay: Primary qHTS assay for inhibitors of alpha-synuclein gene (SNCA) expression; further: nearly all actives have a fitted effect of over 45% in size;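 on activity change, negative = inhibition: plate controls were DMSO cells for no effect and cell-free wells for full effect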
# Conditions: HEK-293 SNCA-luciferase knock-in, luminescence, 24 h; activity change, negative = inhibition: at 57.2 µM (top of the series) unless noted
# Potency means the concentration at half of the fitted maximal effect; tags describe the fitted curve by direction and shape.
SMILES,"activity change, negative = inhibition",Potency
COc1ccc(C(=O)NC2CCN(c3cc(-c4ccc(Cl)cc4)[nH]n3)CC2)c(C)c1,inactive: 17.2%,
O=C(NCC1CC1)c1cc2n(n1)CC(c1ccc3c(c1)OCO3)OC2 (configuration not stated),inactive: 0.523%,
Cc1cccc(-c2noc([C@@H]3C[C@@H](O)CN3Cc3cccc(C#N)c3)n2)c1,inactive: 99.1% [at 87.6 µM],
O=C(COc1ccccc1)N1CCC2(CC1)CC(N(Cc1ccccc1)C1CC1)CCO2 (configuration not stated),,"inconclusive: 39.8 µM [inhibitor, single point]"
O=C1c2c(nc(COc3ccc4c(c3)OCO4)n2Cc2ccccc2)NCCN1Cc1ccccc1F,,"inconclusive: 39.8 µM [inhibitor, single point]"
Cc1occc1-c1nc2ccncc2[nH]1,,inactive
CCOc1cc(C(=O)NC2CCN(c3cc(-c4cccs4)[nH]n3)C2)cc(OCC)c1OCC (configuration not stated),,"inconclusive: 22.4 µM [inhibitor, single point]"
COCc1noc(CCNC(=O)c2cc(S(N)(=O)=O)ccc2F)n1,inactive: 7.97%,
COc1ccc(C2Cn3cnc(C(=O)N4CCC(C(=O)NCc5ccc(C)cc5)CC4)c3CO2)cc1 (configuration not stated),inactive: 34.9%,
Cc1ccc2nc(NCCN)c3ncc(C)n3c2c1,,"inconclusive: 42.9 µM [inhibitor, single point]"
COc1ccc(CNc2ncnc3c2CN(C2CCCNCC2)C(=O)CN3C)cc1 (configuration not stated),inactive: 1.59%,
Cc1ccc(-n2nc(C)c3c(C)cc(=O)n(CC(=O)NCc4ccc(OC(C)C)cc4)c32)cc1,,"inconclusive: 3.98 µM [inhibitor, single point]"
CC(=O)Nc1ccc(NC(=O)CSc2nnc3c4cc(Br)ccc4n(C)c3n2)cc1,,"inconclusive: 28.2 µM [inhibitor, single point]"
CCN1c2cc(C(=O)Nc3ccc(OC)c(Cl)c3)ccc2C(=O)N2CCCCC21 (configuration not stated),,"inconclusive: 39.8 µM [inhibitor, single point]"
NCc1ccc(-c2nc(C3CCOC3)nn2Cc2ccccc2)cc1 (configuration not stated),,"inconclusive: 2.82 µM [inhibitor, partial curve, poor fit]"
CCOc1ccc(-c2nc(C3CC(=O)N(Cc4ccccc4OC)C3)no2)cc1 (configuration not stated),,"inconclusive: 39.8 µM [inhibitor, single point]"
O=C1CN(C(=O)COc2ccc(Cl)cc2Cl)C(c2ccc(F)cc2)c2cc(F)ccc2N1 (configuration not stated),,"inconclusive: 39.8 µM [inhibitor, single point]"
O=S(=O)(c1cccc2nsnc12)N1CCCC(c2nc(CCOCC3CC3)no2)C1 (configuration not stated),inactive: -23.3%,
O=C(Cc1ccc(Cl)cc1)N1CCC(c2n[nH]c(=O)n2Cc2ccc(F)cc2)CC1,,"inconclusive: 1.41 µM [inhibitor, full curve, poor fit]"
CC(C)NC(=O)c1cnc2n[nH]c(-c3ccccc3)c2n1,,"inconclusive: 7.08 µM [inhibitor, full curve, poor fit]"
CN1C(=O)C(c2ccccc2)CC12CCN(C(=O)C1CCC1)CC2 (configuration not stated),inactive: -16%,

SMILES,"activity change, negative = inhibition",Potency
CCCc1noc(-c2ccn3c(CNC(=O)c4cc(Cl)ccc4F)nnc3c2)n1,inactive: 92.8%,
O=S(=O)(c1cccc(F)c1)N1CC(c2nnc(-c3ccncc3)o2)C2(CCOCC2)C1 (configuration not stated),,"inconclusive: 10 µM [inhibitor, partial curve, poor fit]"
Cc1ccc2c(c1)c1c(c(=O)n(-c3cccc(Cl)c3)c(=O)n1C)n2C,,"inconclusive: 39.8 µM [inhibitor, single point]"
COc1ccccc1-c1ccc2ncc(Nc3cccnc3OC)n2n1,inactive: 8.13% [at 87.6 µM],
COc1cccc([S+](=O)([O-])N2CCN(C(=O)c3nc4cccnc4n(CC(C)C)c3=O)CC2)c1,inactive: -21.2%,
O[C@@H]1C[C@@H](c2nnc3n2CCN(Cc2ccccn2)C3)N(Cc2ccccc2)C1,,"inconclusive: 14.1 µM [inhibitor, partial curve, poor fit]"
Cc1cc(N2C[C@H]3CN(C(=O)CN(C)C)C[C@@]3(C(=O)O)C2)nc(N)n1,,"inconclusive: 7.08 µM [inhibitor, partial curve, poor fit]"
COCc1ccc2c(c1)c(OC(C)(C)C(=O)NCc1ccncc1)nn2CCC(C)C,inconclusive: -34.1% [inhibitor] [at 87.6 µM],
CC(C)S(=O)(=O)c1oc(-c2ccc(F)cc2)nc1S(=O)(=O)c1ccc(F)cc1,,"inconclusive: 5.62 µM [inhibitor, full curve, poor fit]"
CC(=O)N1CCN(C(=O)CCC2CCN(c3cc(NC4CC4)ncn3)CC2)CC1,inactive: -27%,
O=C(NC1CC1)C1c2ccccc2C(=O)N(C2CCCCC2)C12CCCCC2 (configuration not stated),inactive: -1.5%,
CCCCNC(=O)CCn1c(=O)c2ccccc2n(Cc2cc(C)ccc2C)c1=O,,"inconclusive: 7.08 µM [inhibitor, single point]"
CN(C)C(=O)c1ccc2c(c1)NC(C)(CCCCc1ccccc1)CO2 (configuration not stated),,"inconclusive: 7.08 µM [inhibitor, partial curve, poor fit]"
O=C(Cc1ccc(F)cc1)NC1CCN(Cc2cccc(-c3ccc(F)c(F)c3)c2)CC1,,"inconclusive: 39.8 µM [inhibitor, single point]"
Cc1ccccc1CC(=O)N1CCC2(CC1)NC(=O)N(c1ccccc1)N2,,"inconclusive: 11.2 µM [inhibitor, partial curve, poor fit]"
Cc1ccc(C)c(S(=O)(=O)c2nnn3c2nc(N2CCCC2)c2sccc23)c1,,"inconclusive: 25.1 µM [inhibitor, single point]"
CCC(C)NC(=O)C1CCN(C(=O)c2cc3sccc3n2Cc2ccc(Cl)cc2)CC1 (configuration not stated),,"inconclusive: 2.24 µM [inhibitor, full curve, poor fit]"
COC(=O)c1ccccc1S(=O)(=O)N1CCC(c2cc(-c3cccc(C)c3)n[nH]2)CC1,inactive: 12.9%,
CC(C)(C)c1ccc(OCC(=O)N(Cc2ccco2)Cc2ccccc2F)cc1,,"inconclusive: 39.8 µM [inhibitor, single point]"
CN1CCN(c2ncc3nc(-c4ccc(Cl)cc4)c(=O)n(CCC#N)c3n2)CC1,,"inconclusive: 39.8 µM [inhibitor, single point]"
COC(=O)c1cccc(C(=O)N[C@H]2CO[C@H]3[C@@H]2OC[C@H]3OC(=O)Nc2ccc(Oc3ccccc3)cc2)c1,,"inconclusive: 17.8 µM [inhibitor, partial curve, poor fit]"
